According to patent US11746139B2, “IL-7Rαγc binding compounds” (MEDIKINE, INC., priority 2020, dated 2023):
At least one structure is not confirmed: it was looked up by name or label, or the drawing left a doubt.

Experiments:
[1] = target: TF-1-7α cells (Homo sapiens, UniProt P16871+P31785); test: STAT5 phosphorylation in TF-1-7α cells (pSTAT5 ELISA); format: cell-based; conditions: read-out: TF-1Rα pSTAT5 ELISA EC50
[2] = target: T1, Rγc (Homo sapiens, UniProt P31785); test: Competitive binding ELISA of IL-7Rαγc ligands, Rγc; conditions: Rγc subunit
T1 construct: purchased ACRObiosystems, Inc. ILG-H5256

[3] = target: IL-7Rα (Homo sapiens, UniProt P16871); test: Competitive binding ELISA of IL-7Rαγc ligands, IL-7Rα; conditions: IL-7Rα subunit
Chain of IL-7Rα (P16871 21-236): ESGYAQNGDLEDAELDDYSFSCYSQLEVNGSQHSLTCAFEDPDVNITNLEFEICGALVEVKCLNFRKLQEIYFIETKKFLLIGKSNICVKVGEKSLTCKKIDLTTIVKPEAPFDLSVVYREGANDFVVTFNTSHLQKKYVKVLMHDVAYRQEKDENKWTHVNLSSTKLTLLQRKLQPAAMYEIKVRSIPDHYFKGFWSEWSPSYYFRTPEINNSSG

T1 sequence (P31785 23-254): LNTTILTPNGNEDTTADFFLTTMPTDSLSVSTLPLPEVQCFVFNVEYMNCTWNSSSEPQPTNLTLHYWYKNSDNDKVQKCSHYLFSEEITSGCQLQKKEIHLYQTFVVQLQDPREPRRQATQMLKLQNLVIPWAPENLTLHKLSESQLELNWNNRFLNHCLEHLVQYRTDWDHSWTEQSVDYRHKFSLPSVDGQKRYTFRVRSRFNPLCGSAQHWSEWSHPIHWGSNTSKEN
Chain of TF-1-7α cells (P16871 21-459): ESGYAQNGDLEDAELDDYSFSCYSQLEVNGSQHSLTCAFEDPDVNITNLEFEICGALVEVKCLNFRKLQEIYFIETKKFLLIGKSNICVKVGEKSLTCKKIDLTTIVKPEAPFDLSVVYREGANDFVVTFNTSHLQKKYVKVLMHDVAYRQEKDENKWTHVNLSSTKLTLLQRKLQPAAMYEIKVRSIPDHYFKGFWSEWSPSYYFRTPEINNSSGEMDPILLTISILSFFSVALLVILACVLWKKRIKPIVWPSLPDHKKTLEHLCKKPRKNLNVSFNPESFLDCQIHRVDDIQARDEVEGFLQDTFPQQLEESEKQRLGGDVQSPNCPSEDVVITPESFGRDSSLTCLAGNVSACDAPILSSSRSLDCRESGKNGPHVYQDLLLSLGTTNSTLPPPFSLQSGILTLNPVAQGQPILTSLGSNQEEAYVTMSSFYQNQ
Chain of TF-1-7α cells (P31785 23-369): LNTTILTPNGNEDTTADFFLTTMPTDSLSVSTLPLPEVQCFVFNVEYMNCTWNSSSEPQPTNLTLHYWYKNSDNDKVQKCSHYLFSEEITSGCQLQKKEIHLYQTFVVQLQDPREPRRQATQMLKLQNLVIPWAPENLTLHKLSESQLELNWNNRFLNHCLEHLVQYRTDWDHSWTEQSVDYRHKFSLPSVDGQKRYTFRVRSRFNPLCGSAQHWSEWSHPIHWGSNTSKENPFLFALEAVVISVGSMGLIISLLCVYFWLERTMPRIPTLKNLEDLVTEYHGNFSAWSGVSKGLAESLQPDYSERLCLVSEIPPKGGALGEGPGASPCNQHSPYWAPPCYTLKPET

SMILES | EC50 [1] | IC50 [2] | IC50 [3]
CC[C@H](C)[C@H](NC(=O)[C@H](CCCNC(=N)N)NC(=O)[C@H](Cc1c[nH]cn1)NC(=O)[C@@H](N)C(C)C)C(=O)N1CCC[C@H]1C(=O)N[C@@H](Cc1c[nH]c2ccccc12)C(=O)N[C@H]1CSSC[C@@H](C(=O)N[C@@H](C)C(=O)N[C@@H](Cc2c[nH]c3ccccc23)C(=O)N[C@@H](CC(C)C)C(=O)N[C@@H](CCCNC(=N)N)C(=O)N[C@@H](CCC(N)=O)C(=O)NCC(=O)NCC(=O)NCC(=O)NCC(=O)N[C@@H](CO)C(=O)NCC(=O)NCC(=O)N[C@H](C(=O)N[C@H](C(=O)N[C@H]2CSSC[C@@H](C(=O)N[C@@H](Cc3c[nH]c4ccccc34)C(=O)N[C@@H](CCC(N)=O)C(=O)NCC(=O)NCC(=O)O)NC(=O)[C@H](CC(C)C)NC(=O)[C@H](CCC(=O)O)NC(=O)[C@H](C(C)C)NC(=O)CNC(=O)[C@H](CCC(=O)O)NC(=O)[C@H](Cc3c[nH]c4ccccc34)NC(=O)[C@H](CC(=O)O)NC(=O)[C@H](CCC(N)=O)NC2=O)C(C)C)C(C)C)NC(=O)[C@H](CCC(N)=O)NC(=O)[C@H](CC(C)C)NC(=O)CNC(=O)CNC(=O)[C@@H]2CCCN2C(=O)[C@H](CC(=O)O)NC(=O)[C@H](CC(C)C)NC(=O)[C@H]([C@@H](C)O)NC1=O [SEQ ID NO: 2070] | 12 nM |  | 
CC[C@H](C)[C@H](NC(=O)[C@@H]1CSSC[C@H](NC(=O)[C@@H](N)CCC(N)=O)C(=O)N[C@@H](C(C)C)C(=O)N[C@@H](Cc2c[nH]cn2)C(=O)N[C@@H](Cc2c[nH]c3ccccc23)C(=O)N[C@@H](CC(=O)O)C(=O)N[C@@H](CC(C)C)C(=O)N[C@@H](CC(=O)O)C(=O)N[C@@H]([C@@H](C)O)C(=O)N[C@@H](CC(C)C)C(=O)N[C@@H](Cc2ccccc2)C(=O)NCC(=O)N1)C(=O)N[C@@H](CCCNC(=N)N)C(=O)N[C@@H](CCC(=O)O)C(=O)N[C@@H](CCC(N)=O)C(=O)N[C@@H](CC(C)C)C(=O)N[C@@H](CCC(=O)O)C(=O)N[C@@H](CC(C)C)C(=O)NCC(=O)NCC(=O)N[C@@H](Cc1cn(CCC(=O)NCC(=O)NCC(=O)N[C@H](C(=O)N[C@H](C(=O)N[C@H]2CSSC[C@@H](C(=O)N[C@@H](Cc3c[nH]c4ccccc34)C(=O)N[C@@H](CCC(N)=O)C(=O)NCC(=O)NCC(N)=O)NC(=O)[C@H](CC(C)C)NC(=O)[C@H](CCC(=O)O)NC(=O)[C@H](C(C)C)NC(=O)CNC(=O)[C@H](CCC(=O)O)NC(=O)[C@H](Cc3c[nH]c4ccccc34)NC(=O)[C@H](CC(=O)O)NC(=O)[C@H](CCC(N)=O)NC2=O)C(C)C)C(C)C)nn1)C(N)=O [IL-7Rαγc ligand H] | 67 nM | 3.6 nM | 200 nM
CC[C@H](C)[C@H](NC(C)=O)C(=O)N1CCC[C@H]1C(=O)N[C@@H](Cc1c[nH]c2ccccc12)C(=O)N[C@H]1CSSC[C@@H](C(=O)N[C@@H](C)C(=O)N[C@@H](Cc2c[nH]c3ccccc23)C(=O)N[C@@H](CC(C)C)C(=O)N[C@@H](CCCNC(=N)N)C(=O)N[C@@H](Cc2cn(CCC(=O)NCC(=O)NCC(=O)N[C@H](C(=O)N[C@H](C(=O)N[C@H]3CSSC[C@@H](C(=O)N[C@@H](Cc4c[nH]c5ccccc45)C(=O)N[C@@H](CCC(N)=O)C(N)=O)NC(=O)[C@H](CC(C)C)NC(=O)[C@H](CCC(=O)O)NC(=O)[C@H](C(C)C)NC(=O)CNC(=O)[C@H](CCC(=O)O)NC(=O)[C@H](Cc4c[nH]c5ccccc45)NC(=O)[C@H](CC(=O)O)NC(=O)[C@H](CCC(N)=O)NC3=O)C(C)C)C(C)C)nn2)C(N)=O)NC(=O)[C@H](CCC(N)=O)NC(=O)[C@H](CC(C)C)NC(=O)CNC(=O)CNC(=O)[C@@H]2CCCN2C(=O)[C@H](CC(=O)O)NC(=O)[C@H](CC(C)C)NC(=O)[C@H]([C@@H](C)O)NC1=O [IL-7Rαγc ligand N] | 46 nM | 8.7 nM | 320 nM
CC[C@H](C)[C@H](NC(C)=O)C(=O)N1CCC[C@H]1C(=O)N[C@@H](Cc1c[nH]c2ccccc12)C(=O)N[C@H]1CSSC[C@@H](C(=O)N[C@@H](C)C(=O)N[C@@H](Cc2c[nH]c3ccccc23)C(=O)N[C@@H](CC(C)C)C(=O)N[C@@H](CCCNC(=N)N)C(=O)N[C@@H](Cc2cn(CCC(=O)N[C@H](C(=O)N[C@H](C(=O)N[C@H]3CSSC[C@@H](C(=O)N[C@@H](Cc4c[nH]c5ccccc45)C(=O)N[C@@H](CCC(N)=O)C(N)=O)NC(=O)[C@H](CC(C)C)NC(=O)[C@H](CCC(=O)O)NC(=O)[C@H](C(C)C)NC(=O)CNC(=O)[C@H](CCC(=O)O)NC(=O)[C@H](Cc4c[nH]c5ccccc45)NC(=O)[C@H](CC(=O)O)NC(=O)[C@H](CCC(N)=O)NC3=O)C(C)C)C(C)C)nn2)C(N)=O)NC(=O)[C@H](CCC(N)=O)NC(=O)[C@H](CC(C)C)NC(=O)CNC(=O)CNC(=O)[C@@H]2CCCN2C(=O)[C@H](CC(=O)O)NC(=O)[C@H](CC(C)C)NC(=O)[C@H]([C@@H](C)O)NC1=O [IL-7Rαγc ligand O] | 27 nM | 15 nM | 160 nM
CC[C@H](C)[C@H](NC(C)=O)C(=O)N1CCC[C@H]1C(=O)N[C@@H](Cc1c[nH]c2ccccc12)C(=O)N[C@H]1CSSC[C@@H](C(=O)N[C@@H](C)C(=O)N[C@@H](Cc2c[nH]c3ccccc23)C(=O)N[C@@H](CC(C)C)C(=O)N[C@@H](CCCNC(=N)N)C(=O)NCC(=O)NCC(=O)N[C@@H](Cc2cn(CCC(=O)NCC(=O)NCC(=O)N[C@H](C(=O)N[C@H](C(=O)N[C@H]3CSSC[C@@H](C(=O)N[C@@H](Cc4c[nH]c5ccccc45)C(=O)N[C@@H](CCC(N)=O)C(N)=O)NC(=O)[C@H](CC(C)C)NC(=O)[C@H](CCC(=O)O)NC(=O)[C@H](C(C)C)NC(=O)CNC(=O)[C@H](CCC(=O)O)NC(=O)[C@H](Cc4c[nH]c5ccccc45)NC(=O)[C@H](CC(=O)O)NC(=O)[C@H](CCC(N)=O)NC3=O)C(C)C)C(C)C)nn2)C(N)=O)NC(=O)[C@H](CCC(N)=O)NC(=O)[C@H](CC(C)C)NC(=O)CNC(=O)CNC(=O)[C@@H]2CCCN2C(=O)[C@H](CC(=O)O)NC(=O)[C@H](CC(C)C)NC(=O)[C@H]([C@@H](C)O)NC1=O [IL-7Rαγc ligand M] | 27 nM | 2 nM | 270 nM
CC[C@H](C)[C@H](NC(=O)[C@H](CCCNC(=N)N)NC(=O)[C@H](Cc1c[nH]cn1)NC(=O)[C@@H](NC(C)=O)C(C)C)C(=O)N1CCC[C@H]1C(=O)N[C@@H](Cc1c[nH]c2ccccc12)C(=O)N[C@H]1CSSC[C@@H](C(=O)N[C@@H](C)C(=O)N[C@@H](Cc2c[nH]c3ccccc23)C(=O)N[C@@H](CC(C)C)C(=O)N[C@@H](CCCNC(=N)N)C(=O)NCC(=O)NCC(=O)NCC(=O)NCC(=O)N[C@@H](CO)C(=O)NCC(=O)NCC(=O)N[C@H](C(=O)N[C@H](C(=O)N[C@H]2CSSC[C@@H](C(=O)N[C@@H](Cc3c[nH]c4ccccc34)C(=O)N[C@@H](CCC(N)=O)C(=O)NCC(=O)NCC(=O)O)NC(=O)[C@H](CC(C)C)NC(=O)[C@H](CCC(=O)O)NC(=O)[C@H](C(C)C)NC(=O)CNC(=O)[C@H](CCC(=O)O)NC(=O)[C@H](Cc3c[nH]c4ccccc34)NC(=O)[C@H](CC(=O)O)NC(=O)[C@H](CCC(N)=O)NC2=O)C(C)C)C(C)C)NC(=O)[C@H](CCC(N)=O)NC(=O)[C@H](CC(C)C)NC(=O)CNC(=O)CNC(=O)[C@@H]2CCCN2C(=O)[C@H](CC(=O)O)NC(=O)[C@H](CC(C)C)NC(=O)[C@H]([C@@H](C)O)NC1=O [SEQ ID NO: 2071] | 13 nM | 15 nM | 
CC[C@H](C)[C@H](NC(C)=O)C(=O)N1CCC[C@H]1C(=O)N[C@@H](Cc1c[nH]c2ccccc12)C(=O)N[C@H]1CSSC[C@@H](C(=O)N[C@@H](C)C(=O)N[C@@H](Cc2c[nH]c3ccccc23)C(=O)N[C@@H](CC(C)C)C(=O)N[C@@H](CCCNC(=N)N)C(=O)N[C@@H](CCC(N)=O)C(=O)N[C@@H](CCSC)C(=O)NCC(=O)NCC(=O)N[C@@H](Cc2cn(CCC(=O)NCC(=O)NCC(=O)N[C@H](C(=O)N[C@H](C(=O)N[C@H]3CSSC[C@@H](C(=O)N[C@@H](Cc4c[nH]c5ccccc45)C(=O)N[C@@H](CCC(N)=O)C(N)=O)NC(=O)[C@H](CC(C)C)NC(=O)[C@H](CCC(=O)O)NC(=O)[C@H](C(C)C)NC(=O)CNC(=O)[C@H](CCC(=O)O)NC(=O)[C@H](Cc4c[nH]c5ccccc45)NC(=O)[C@H](CC(=O)O)NC(=O)[C@H](CCC(N)=O)NC3=O)C(C)C)C(C)C)nn2)C(N)=O)NC(=O)[C@H](CCC(N)=O)NC(=O)[C@H](CC(C)C)NC(=O)CNC(=O)CNC(=O)[C@@H]2CCCN2C(=O)[C@H](CC(=O)O)NC(=O)[C@H](CC(C)C)NC(=O)[C@H]([C@@H](C)O)NC1=O [IL-7Rαγc ligand L] | 13 nM | 5.6 nM | 180 nM
CC[C@H](C)[C@H](NC(=O)[C@H](CCCNC(=N)N)NC(=O)[C@H](Cc1c[nH]cn1)NC(=O)[C@@H](NC(C)=O)C(C)C)C(=O)N1CCC[C@H]1C(=O)N[C@@H](Cc1c[nH]c2ccccc12)C(=O)N[C@H]1CSSC[C@@H](C(=O)N[C@@H](C)C(=O)N[C@@H](Cc2c[nH]c3ccccc23)C(=O)N[C@@H](CC(C)C)C(=O)N[C@@H](CCCNC(=N)N)C(=O)N[C@@H](CCC(N)=O)C(=O)NCC(=O)NCC(=O)NCC(=O)NCC(=O)N[C@@H](CO)C(=O)NCC(=O)NCC(=O)N[C@H](C(=O)N[C@H](C(=O)N[C@H]2CSSC[C@@H](C(=O)N[C@@H](Cc3c[nH]c4ccccc34)C(=O)N[C@@H](CCC(N)=O)C(=O)N3CCC[C@H]3C(=O)N3CCC[C@H]3C(=O)N[C@@H](C)C(=O)O)NC(=O)[C@H](CC(C)C)NC(=O)[C@H](CCC(=O)O)NC(=O)[C@H](C(C)C)NC(=O)CNC(=O)[C@H](CCC(=O)O)NC(=O)[C@H](Cc3c[nH]c4ccccc34)NC(=O)[C@H](CC(=O)O)NC(=O)[C@H](CCC(N)=O)NC2=O)C(C)C)C(C)C)NC(=O)[C@H](CCC(N)=O)NC(=O)[C@H](CC(C)C)NC(=O)CNC(=O)CNC(=O)[C@@H]2CCCN2C(=O)[C@H](CC(=O)O)NC(=O)[C@H](CC(C)C)NC(=O)[C@H]([C@@H](C)O)NC1=O [SEQ ID NO: 2065] | 12 nM |  | 
